Experimental data: the supplement of paper PMC10126150
Values marked as one replicate rest on one cluster of the flow cell; about a third of the high ones do not repeat.

system: ATP; test: switch fluorescence ratio, 500 uM ATP over buffer (Cy3 cluster intensity, sum of 5 cycles each) (fold (ratio)); higher = stronger signal-on switching upon ATP binding; sequences stand for … in TCGTCGGCAGCGTCAGATGTGTATAAGAGACAGTTTTTTTTTTTTTTTTTTTTTTTTT…TC; settings: aptamer strand: ATP DNA aptamer (quencher-CACCTGGGGGAGTATTGCGGAGGAAGG + anchor), 100 nM annealed; ATP concentration: 500 uM; one replicate
In short: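 Per cluster, summed Cy3 intensity from the target cycles was divided by that from the buffer cycles to give the fluorescence ratio, then averaged per switch-domain sequence. Clusters outside 100-1000 RFU were excluded. The Cy3-labelled switching-strand clusters, on a modified Illumina MiSeq flow-cell, were annealed to 100 nM quencher-labelled ATP aptamer and imaged in selection buffer, then after 15 min with 500 uM ATP at 22 °C, for five cycles with NaOH stripping and re-annealing between them.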
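Also: ATP exposure 15 min at 22 °C before imaging.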

| Sequence | switch fluorescence ratio |
| --- | --- |
| ACAGTAATCT | 1.12 |
| ACAGTACGG | 1.5 |
| ACAGTCCCTT | 1.02 |
| ACAGTGGAGG | 1.01 |
| ACAGTGGTAA | 1.01 |
| ACAGTGTGTA | 1.01 |
| ACATAAAAAA | 1.18 |
| ACATAATATA | 1.03 |
| ACATAATCGC | 1.02 |
| ACATAATTAT | 1.03 |
| ACATACGTTT | 1.4 |
| ACATACTCTC | 1.28 |
| ACATACTGG | 1.46 |
| ACATAGAGTT | 1.01 |
| ACATATAAAG | 1.03 |
| ACATATCACA | 1.07 |
| ACATATGGTC | 1.04 |
| ACATATTGTA | 1.06 |
| ACATATTGTC | 0.968 |
| ACATCAACGG | 1.06 |
| ACATCACTTT | 1.32 |
| ACATCCGAAG | 1.32 |
| ACATCCGGG | 1.06 |
| ACATCGCTAA | 1.17 |
| ACATCGGGCA | 0.991 |

| Sequence | switch fluorescence ratio |
| --- | --- |
| ACATCTATAC | 1.24 |
| ACATCTCCAG | 1.04 |
| ACATGCAGC | 1.02 |
| ACATGCTCAG | 1.07 |
| ACATGCTTAG | 0.975 |
| ACATGGAATT | 0.977 |
| ACATGGCTCA | 1.01 |
| ACATGTACAT | 1.05 |
| ACATGTATGG | 1.02 |
| ACATGTTATG | 0.982 |
| ACATTATATC | 1.01 |
| ACATTCCCGT | 1.12 |
| ACATTCGAAA | 1.03 |
| ACATTGCGAT | 0.999 |
| ACATTGTCAT | 1.01 |
| ACATTTCAGA | 1 |
| ACATTTGACC | 0.989 |
| ACATTTTATG | 1.01 |
| ACCAAAAACA | 0.966 |
| ACCAAACACA | 1.17 |
| ACCAACATTT | 1.09 |
| ACCAACTCTA | 1.17 |
| ACCACCATTT | 1.14 |
| ACCACGCCGG | 1.08 |
| ACCACTTGAG | 1.07 |

| Sequence | switch fluorescence ratio |
| --- | --- |
| ACCAGAGAGC | 0.926 |
| ACCAGAGAGG | 1.02 |
| ACCAGCATGC | 1.1 |
| ACCAGCTTGA | 1.05 |
| ACCAGGACAG | 1.01 |
| ACCAGGATAC | 1.34 |
| ACCAGGCGGC | 1.08 |
| ACCAGTCTAC | 1.03 |
| ACCAGTCTGT | 0.997 |
| ACCAGTTCTC | 0.994 |
| ACCATAGGTG | 1.54 |
| ACCATTTCCA | 0.997 |
| ACCCAAAGAT | 1.06 |
| ACCCAATGAG | 1.06 |
| ACCCACTCGT | 1.36 |
| ACCCAGCTAC | 2.75 |
| ACCCAGGAG | 3.64 |
| ACCCCAAAGG | 1.1 |
| ACCCCGTGCT | 1.08 |
| ACCCGAGTT | 0.985 |
| ACCCGCAGGT | 1.21 |
| ACCCGCGTGG | 1.03 |
| ACCCGCTTGT | 1.18 |
| ACCCGGGATA | 1.09 |
| ACCCGGTAA | 1.01 |

| Sequence | switch fluorescence ratio |
| --- | --- |
| ACCCGGTCGT | 1.03 |
| ACCCGTATAT | 1.23 |
| ACCCGTTAAA | 1.03 |
| ACCCTAAACC | 1.17 |
| ACCCTCTGTA | 1.04 |
| ACCCTTTT | 1.2 |
| ACCGAAAACA | 1.05 |
| ACCGAAAGAT | 1.09 |
| ACCGAAAGTG | 0.99 |
| ACCGACCGAA | 2.15 |
| ACCGACTAGA | 1.12 |
| ACCGAGAACG | 1.18 |
| ACCGAGGATT | 1.04 |
| ACCGAGTTG | 1 |
| ACCGATCCCC | 1.19 |
| ACCGCGGGAG | 1.05 |
| ACCGCGTCTT | 1.02 |
| ACCGCTCAAC | 4.68 |
| ACCGGAAAAA | 1.12 |
| ACCGGCACAG | 1.17 |
| ACCGGCCAAG | 1.05 |
| ACCGGGCCCG | 1.03 |
| ACCGGGGGAT | 1.18 |
| ACCGGGGTCC | 1.02 |
| ACCGGTCTGT | 1 |

| Sequence | switch fluorescence ratio |
| --- | --- |
| ACCGGTGCCA | 1.02 |
| ACCGGTTTAT | 1.02 |
| ACCGGTTTCG | 0.993 |
| ACCGTCAGGC | 1.02 |
| ACCGTCTATC | 1.09 |
| ACCGTGATGA | 0.996 |
| ACCGTTACGG | 0.98 |
| ACCGTTGATG | 0.95 |
| ACCGTTGGCC | 1.68 |
| ACCTAACACT | 1.19 |
| ACCTATGATA | 1.04 |
| ACCTATGTGG | 1.04 |
| ACCTCGAAA | 1.24 |
| ACCTCGTATC | 1.01 |
| ACCTCTATGG | 1.03 |
| ACCTGCACGG | 1.14 |
| ACCTGCGCGC | 1.17 |
| ACCTGGATCT | 1.11 |
| ACCTGGCTAC | 1.77 |
| ACCTTAAAAA | 1.07 |
| ACCTTCGACC | 3.07 |
| ACCTTCTTGT | 1.11 |
| ACCTTGACCT | 1.31 |
| ACCTTGATT | 1.04 |
| ACCTTTCTCC | 3.82 |

| Sequence | switch fluorescence ratio |
| --- | --- |
| ACGAACATCT | 1.27 |
| ACGAAGAACT | 1.03 |
| ACGAATAGAA | 1.03 |
| ACGAATCAGG | 1.46 |
| ACGAATTGTG | 0.985 |
| ACGACTAGTT | 1.02 |
| ACGACTCAAC | 2.69 |
| ACGACTGCA | 2.3 |
| ACGAGAACGC | 1.05 |
| ACGAGATCAT | 1.03 |
| ACGAGATGAA | 0.986 |
| ACGAGATTGG | 1.02 |
| ACGAGCCCAG | 4.66 |
| ACGAGCGGCT | 1.08 |
| ACGAGGAGAC | 1.05 |
| ACGAGGGCCT | 1.02 |
| ACGAGGGCTG | 1.01 |
| ACGAGTAATG | 1.03 |
| ACGAGTTGT | 0.986 |
| ACGATCGCCG | 1.03 |
| ACGATTGCA | 1.34 |
| ACGCACCGGC | 1.4 |
| ACGCACTATC | 1.62 |
| ACGCAGCTTC | 2.74 |
| ACGCATAATC | 2.26 |

| Sequence | switch fluorescence ratio |
| --- | --- |
| ACGCATGAAA | 1.03 |
| ACGCATTCCC | 2.56 |
| ACGCCAAGGG | 1.07 |
| ACGCCACAAA | 1.53 |
| ACGCCACGTA | 1.18 |
| ACGCCATGGC | 1.01 |
| ACGCCGGTCG | 1.04 |
| ACGCCTATGG | 0.943 |
| ACGCCTGAAC | 1.51 |
| ACGCCTTAGA | 1.02 |
| ACGCCTTTAA | 1.04 |
| ACGCGATCGA | 1.04 |
| ACGCGCCTAC | 1.63 |
| ACGCGGTACG | 1.08 |
| ACGCTAAATC | 1.44 |
| ACGCTGCATG | 1.16 |
| ACGCTGCGAC | 1.71 |
| ACGCTGGTTG | 1.04 |
| ACGCTTGAAG | 1.02 |
| ACGCTTGCAC | 1.27 |
| ACGGAATTCC | 1.04 |
| ACGGAGACAC | 1.07 |
| ACGGAGACGC | 1.07 |
| ACGGAGGGAG | 1.02 |
| ACGGAGGTT | 1.04 |

| Sequence | switch fluorescence ratio |
| --- | --- |
| ACGGCACGGA | 1.07 |
| ACGGCACGGT | 1.11 |
| ACGGCACTGA | 1.58 |
| ACGGCAGGGG | 1.29 |
| ACGGCATATT | 1.09 |
| ACGGCCAGCA | 1.09 |
| ACGGCGGCTC | 1.05 |
| ACGGCTGAGG | 0.973 |
| ACGGGAATGT | 1 |
| ACGGGACAAC | 1.2 |
| ACGGGCAGGT | 1.04 |
| ACGGGCTCTC | 0.977 |
| ACGGGGAACG | 1.06 |
| ACGGGGAAGC | 1.01 |
| ACGGGGACAG | 1.03 |
| ACGGGGCCTT | 1.01 |
| ACGGGTCGC | 1.06 |
| ACGGTCCTAT | 1.01 |
| ACGGTCTAGC | 1.06 |
| ACGGTCTGGG | 1.02 |
| ACGGTGACTG | 1.06 |
| ACGGTGTGCA | 0.986 |
| ACGGTGTGTG | 0.976 |
| ACGTAACTAA | 1.23 |
| ACGTAAGTCG | 1.02 |
